The values that follow come from publication PMC4336329 (PLoS ONE, 2015).

The whole screen tested about 310,000 compounds, of which about 2,200 (0.71%) showed an effect of 50% or more. Effects have a minus sign here. Some of the results follow.

The target of the experiment is human ether-à-go-go-related gene (hERG) potassium channel (human, UniProt Q12809). Briefly: primary screen, population patch clamp on CHO cells stably expressing hERG.
Chain of human ether-à-go-go-related gene (hERG) potassium channel (Q12809 whole entry, looked up): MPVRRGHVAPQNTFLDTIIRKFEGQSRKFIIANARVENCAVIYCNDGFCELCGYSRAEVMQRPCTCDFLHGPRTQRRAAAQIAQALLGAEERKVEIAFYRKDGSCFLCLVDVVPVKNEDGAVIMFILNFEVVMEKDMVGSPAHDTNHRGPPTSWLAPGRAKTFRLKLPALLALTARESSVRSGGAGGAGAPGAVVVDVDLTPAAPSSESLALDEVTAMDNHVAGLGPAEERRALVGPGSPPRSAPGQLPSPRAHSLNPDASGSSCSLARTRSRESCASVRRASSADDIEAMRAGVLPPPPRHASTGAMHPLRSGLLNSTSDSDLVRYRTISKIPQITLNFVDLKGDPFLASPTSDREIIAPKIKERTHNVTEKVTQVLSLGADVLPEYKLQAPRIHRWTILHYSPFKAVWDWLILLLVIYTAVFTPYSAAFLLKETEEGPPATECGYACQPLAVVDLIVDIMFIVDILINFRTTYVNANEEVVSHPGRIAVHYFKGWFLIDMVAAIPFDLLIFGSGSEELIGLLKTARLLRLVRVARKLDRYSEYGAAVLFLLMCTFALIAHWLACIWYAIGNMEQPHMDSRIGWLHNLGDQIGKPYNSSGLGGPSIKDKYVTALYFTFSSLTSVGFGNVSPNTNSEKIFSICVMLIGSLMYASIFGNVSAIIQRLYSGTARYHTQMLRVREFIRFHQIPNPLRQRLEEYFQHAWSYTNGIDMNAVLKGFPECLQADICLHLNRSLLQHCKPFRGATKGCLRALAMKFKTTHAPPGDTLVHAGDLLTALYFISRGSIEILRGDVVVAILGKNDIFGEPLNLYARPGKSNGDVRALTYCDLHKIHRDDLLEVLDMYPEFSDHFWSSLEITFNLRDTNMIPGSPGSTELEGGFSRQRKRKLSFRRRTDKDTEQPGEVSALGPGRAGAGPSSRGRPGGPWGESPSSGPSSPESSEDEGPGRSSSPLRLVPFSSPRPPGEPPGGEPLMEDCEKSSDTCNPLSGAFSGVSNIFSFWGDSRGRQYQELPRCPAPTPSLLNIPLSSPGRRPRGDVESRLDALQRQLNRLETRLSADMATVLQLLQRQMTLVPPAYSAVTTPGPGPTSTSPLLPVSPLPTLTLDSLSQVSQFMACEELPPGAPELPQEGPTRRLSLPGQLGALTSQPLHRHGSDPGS
Regarding `CC(=O)Nc1cccc(-c2nnc(-c3ccccc3)o2)c1`, the “hERG current change (%, negative = inhibition) at 1uM” value worked out at 4.2%. For `COc1ccc(NC(=O)C(CCS(C)(=O)=O)N2C(=O)c3ccccc3C2=O)cc1` (stereo not shown), the “hERG current change (%, negative = inhibition) at 1uM” value was -17.8%. For `Cn1c(CCNC(=O)c2ccccc2)nc2cc(NC(=O)C3CCCCC3)ccc21`, the “hERG current change (%, negative = inhibition) at 1uM” value is 0.73%. In the case of `CCOC(=O)c1ccccc1NC(=O)c1c(N)n(C)c(=O)[nH]c1=O`, the “hERG current change (%, negative = inhibition) at 1uM” value is 11.6%. The result for `O=C(Nc1cc(Cl)cc(Cl)c1)c1cnn2cccnc12` reads 16.2%; that for `COc1ccc(CC(=O)NCc2nnc(SCC(=O)c3ccc(OC)cc3)n2C)cc1`, 5%.

Regarding `CCN(CC)S(=O)(=O)c1ccc(N2CCOCC2)c(NC(=O)Cc2ccc(Cl)cc2)c1`, the “hERG current change (%, negative = inhibition) at 1uM” value was -0.184%. For `Cc1ccc(-n2ncc3c(NNC(=O)Cc4ccccc4)ncnc32)cc1` the value was 16.2%. With `Cc1ccc(C(O)(CNCc2ccccc2)c2ccccc2)cc1` (stereo not shown), the “hERG current change (%, negative = inhibition) at 1uM” value is recorded as 10.9%. For `COc1cccc(NC(=O)C2CCC(CNC(=O)[C@@H]3Cc4ccccc4CN3)CC2)c1` (stereo partly shown) the value was 9.4%; for `COc1cccc(CCN2CCC(CNS(=O)(=O)c3cc(-c4cc(C)no4)ccc3OC)CC2)c1`, -66.3%; for `Cc1nn(Cc2ccccc2Cl)c(C)c1C(=O)NCCN1C(=O)S/C(=C\c2ccccc2)C1=O`, 8.92%. The result for `CCOc1ccc(NC2=C(Cl)C(=O)N(C3CCCCC3)C2=O)cc1` reads 7.1%; that for `COc1ccc(OC)c(CN2CCN(C(=O)c3cc(S(=O)(=O)Nc4ccccc4OC)ccc3C)CC2)c1`, 10.1%; that for `CCC(C)NS(=O)(=O)c1ccc(F)c(C(=O)Nc2c(F)cc(F)cc2Br)c1` (stereo not shown), -6.42%. Turning to `CC(C)CN(C(=O)CSc1nc2ccccc2c(=O)n1C)C1CCS(=O)(=O)C1` (stereo not shown), the “hERG current change (%, negative = inhibition) at 1uM” value was -8.16%. For `COc1c(C(=O)Nc2ccc(Br)cn2)ccc2ccccc12` the value was 4.43%; for `CCCc1ncc(CN2CCC(C(=O)Nc3cccc(-c4cscn4)c3)CC2)cn1`, 6.68%. For `CC(=O)N1CCN(S(=O)(=O)c2ccccc2)C1c1ccccc1` (stereo not shown) the value was 8.99%.

For `CCN(CC)S(=O)(=O)c1ccc2c(c1)oc(=O)n2CC(=O)NC1CCCCC1`, the “hERG current change (%, negative = inhibition) at 1uM” value amounted to 13.2%.

With `COc1ccc(C(CNC(=O)c2[nH]c(C)c(C(C)=O)c2C)N2CCOCC2)cc1` (stereo not shown), the “hERG current change (%, negative = inhibition) at 1uM” value is reported as 7.66%. Take `CCn1c(O)c(/C=N/N=C2CCCCC2)c2cc(C3=NNC(=O)CC3)ccc21`: the “hERG current change (%, negative = inhibition) at 1uM” value came out at 10.6%. In the case of `COc1cc(C(=O)N(Cc2cccnc2)Cc2cc3cc4c(cc3[nH]c2=O)OCCO4)cc(OC)c1OC`, the “hERG current change (%, negative = inhibition) at 1uM” value is on record as 13.8%. Turning to `COc1ccc(CC(NC(C)=O)C(=O)NC2CCN(S(=O)(=O)c3cccc4ccccc34)CC2)cc1OC` (stereo not shown), the “hERG current change (%, negative = inhibition) at 1uM” value is given as 9.86%. For `Cc1ccc(CCNC(=O)c2cc(S(=O)(=O)N3CCCCC3)c[nH]2)cc1`, the “hERG current change (%, negative = inhibition) at 1uM” value was 4.34%. For `Cc1ccc2c(c1)[C@@H](O)C[C@@H](C)N2N=O`, the “hERG current change (%, negative = inhibition) at 1uM” value came out at 2.84%. With `CCOC(=O)c1c(NC(=O)CSC(=S)N(C)C)sc(C)c1C`, the “hERG current change (%, negative = inhibition) at 1uM” value turned out to be 10.7%. The result for `COc1cc(OC)cc(C(=O)N[C@H](C(=O)OCC(=O)Nc2ccc(OC)c(OC)c2)C(C)C)c1` reads 11.4%.

For `CCOC(=O)c1c(CN2CCN(c3ccccc3)CC2)oc2cc(Br)c(O)cc12.Cl`, the “hERG current change (%, negative = inhibition) at 1uM” value was 18.6%. In the case of `Cc1cc(=O)oc2cc(OC(C)C(=O)NCc3ccccn3)ccc12` (stereo not shown), the “hERG current change (%, negative = inhibition) at 1uM” value amounted to 5.51%.

In the case of `CC(COc1ccccc1)N1CCC(CO)(Cc2ccccc2)CC1` (stereo not shown), the “hERG current change (%, negative = inhibition) at 1uM” value is listed as -13.3%.

For `CC(=O)c1c(C)nc(-c2ccccc2)nc1NC(=O)C(C)C`, the “hERG current change (%, negative = inhibition) at 1uM” value was -3.98%.

For the compound `CCN(C(=O)CN1CCN(c2ccccc2O)CC1)c1c(N)n(Cc2ccccc2)c(=O)[nH]c1=O`, the “hERG current change (%, negative = inhibition) at 1uM” value is 0.646%.

Consider `CC(C)C(OC(=O)c1nsc(Cl)c1Cl)C(=O)NC1CCCCC1` (stereo not shown), for which the “hERG current change (%, negative = inhibition) at 1uM” value was -5.34%.

Consider `O=C(NC(=S)Nc1ccc2c(c1)OCO2)c1ccccc1`, for which the “hERG current change (%, negative = inhibition) at 1uM” value stood at 10.6%. Take `COc1cccc(NC(=S)N2CCC(NC(=O)c3ccco3)CC2)c1`: the “hERG current change (%, negative = inhibition) at 1uM” value is recorded as -6.52%. For the compound `N#CCSc1nnc(Nc2ccccc2)s1`, the “hERG current change (%, negative = inhibition) at 1uM” value is 3.73%. Turning to `COC(=O)CC/C(O)=C1\C(=O)CC(C)(C)CC1=NCCc1nc2ccccc2[nH]1`, the “hERG current change (%, negative = inhibition) at 1uM” value was found to be 20.4%.

For the compound `CC(NC(=O)[C@H](Cc1c[nH]c2ccccc12)NC(=O)[C@@H]1Cc2ccccc2CN1)c1ccccc1` (stereo partly shown), the “hERG current change (%, negative = inhibition) at 1uM” value worked out at 2.22%. `COc1ccc(C(c2nnnn2Cc2cccs2)N2CCN(c3ccccc3)CC2)cc1OC` (stereo not shown): the “hERG current change (%, negative = inhibition) at 1uM” value is listed as -18.3%. In the case of `Cc1ccccc1C(=O)N1CCC(C(=O)Nc2cccc(S(=O)(=O)N3CCCCC3)c2)CC1`, the “hERG current change (%, negative = inhibition) at 1uM” value is listed as -4.43%.

For `CCn1c2ccccc2c2nnc(SCc3ccccc3)nc21`, the “hERG current change (%, negative = inhibition) at 1uM” value is listed as 6.55%. The result for `COCc1c(C#N)c(NCCc2ccccc2)nc(C)c1[N+](=O)[O-]` reads 13.6%.
